Source: publication PMC4336329 (PLoS ONE, 2015)
About 2,200 (0.71%) of roughly 310,000 compounds showed an effect of 50% or more. The effect is printed as a negative number. Some of the results follow.

molecular target: human ether-à-go-go-related gene (hERG) potassium channel (human, UniProt Q12809); assay: primary screen, population patch clamp on CHO cells stably expressing hERG
Sequence (Q12809 whole entry, looked up): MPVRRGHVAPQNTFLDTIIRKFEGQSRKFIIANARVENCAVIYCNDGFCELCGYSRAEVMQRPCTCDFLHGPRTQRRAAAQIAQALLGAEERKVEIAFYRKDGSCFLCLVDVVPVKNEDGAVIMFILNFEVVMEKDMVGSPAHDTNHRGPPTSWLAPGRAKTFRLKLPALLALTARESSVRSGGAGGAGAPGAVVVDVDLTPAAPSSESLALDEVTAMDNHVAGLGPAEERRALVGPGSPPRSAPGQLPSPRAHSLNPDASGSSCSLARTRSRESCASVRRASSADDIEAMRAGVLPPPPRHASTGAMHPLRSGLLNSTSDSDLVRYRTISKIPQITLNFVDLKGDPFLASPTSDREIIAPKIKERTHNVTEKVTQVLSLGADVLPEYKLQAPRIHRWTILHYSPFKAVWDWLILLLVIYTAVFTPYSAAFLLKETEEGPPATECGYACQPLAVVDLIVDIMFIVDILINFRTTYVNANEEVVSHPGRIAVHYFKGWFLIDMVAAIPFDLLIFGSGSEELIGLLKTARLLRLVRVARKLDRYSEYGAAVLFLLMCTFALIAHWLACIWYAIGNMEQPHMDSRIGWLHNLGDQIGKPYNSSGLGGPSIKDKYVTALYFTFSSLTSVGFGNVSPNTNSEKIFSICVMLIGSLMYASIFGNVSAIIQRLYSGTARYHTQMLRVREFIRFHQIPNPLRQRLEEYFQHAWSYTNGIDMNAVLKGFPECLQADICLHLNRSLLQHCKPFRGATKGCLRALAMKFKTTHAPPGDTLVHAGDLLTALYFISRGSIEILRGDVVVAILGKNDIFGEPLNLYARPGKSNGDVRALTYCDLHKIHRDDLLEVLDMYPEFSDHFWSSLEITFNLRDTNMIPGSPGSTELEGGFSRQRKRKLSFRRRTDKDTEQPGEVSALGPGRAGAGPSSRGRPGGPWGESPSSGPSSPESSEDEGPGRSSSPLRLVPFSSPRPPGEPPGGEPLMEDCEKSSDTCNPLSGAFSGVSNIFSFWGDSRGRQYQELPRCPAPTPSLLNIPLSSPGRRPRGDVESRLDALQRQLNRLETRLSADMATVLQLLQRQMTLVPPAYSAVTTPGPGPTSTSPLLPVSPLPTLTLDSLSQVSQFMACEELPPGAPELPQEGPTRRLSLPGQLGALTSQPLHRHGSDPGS

SMILES | hERG current change (%, negative = inhibition) at 1uM [%]
COc1ccc(N2CCN(S(=O)(=O)CCNC(=O)CCCc3ccccc3)CC2)cc1 | 6.55
CC(C)N1CC(COc2ccc(Br)cc2)OC1=O (stereo not drawn) | -7.76
CC(C)(Oc1ccc(Cl)cc1)C(=O)OCC(=O)Nc1ncc(Cl)cc1Cl | 6.92
Cc1ccc(-c2cc(C(F)F)nc(N3CCC(C)CC3)n2)cc1 | 12.9
Cc1cccc(N2CCN(C(=O)c3ccccc3NC(=O)C3CCCCC3C(=O)O)CC2)c1 (stereo not drawn) | 9.99
COc1ccccc1NC(=O)CSc1ccc(-c2cccs2)nn1 | -3.98
COCc1nnc(NC(=O)c2cc(C(=O)OC)cc([N+](=O)[O-])c2)s1 | 2.32
COc1nc(NC(C)C)nc(NC(C)C)n1 | 12.6
CCOC(=O)c1cnc(-n2nc(C)cc2C)nc1NCCc1ccccc1 | 8.69
COC(=O)c1c(N2C(=O)Nc3ccccc3N2O)sc2c1CCCC2 | 5.18
CCOC(=O)C(N)CSC1CC(=O)N(CCc2ccccc2)C1=O.Cl (stereo not drawn) | 12.9
COc1cc(/C=N/n2cnnc2)ccc1OS(=O)(=O)c1ccccc1[N+](=O)[O-] | -11.6
CCOC(=O)N1CCN(Cc2nc3c(c(=O)n(C)c(=O)n3C)n2Cc2cccc(C)c2)CC1 | -13.3
COCCNC(=S)N/N=C(\C)c1ccc(Cl)c(Cl)c1Cl | 14.2
O=C(O)CC(NC(=O)CC(c1ccccc1)c1ccccc1)c1cccc([N+](=O)[O-])c1 (stereo not drawn) | 9.61
CCOc1ccccc1NC(=S)/C(=C(\[O-])c1ccc2c(c1)OCCO2)[n+]1ccc(CC)cc1 | 4.26
Cc1cccc(C(=O)NCCC(=O)Nc2nc(C)c(Cc3ccc4c(c3)OCO4)s2)c1 | 5.99
O=C(O)c1ccccc1SCc1csc(-c2ccccc2)n1 | 9.33
CCCC12CN3CCN(CC(C3)/C1=N\NC(=O)c1ccc(C(C)(C)C)cc1)C2 | -2.85

SMILES | hERG current change (%, negative = inhibition) at 1uM [%]
COc1cc(NC(=S)NC(=O)c2cc(C)cc(C)c2)ccc1NC(=O)c1cccs1 | 23.4
O=C(NCc1cccs1)c1cccc(Nc2nc3ccc(Br)cc3[nH]2)c1 | 15.6
COc1ccc2cc(S(=O)(=O)N3CCOCC3)ccc2c1 | -0.435
CCOC(=O)CN1NC2(CCC(C(C)(C)C)CC2)NC1=S (stereo not drawn) | 18.9
O=c1[nH]cnc2c1C(c1ccccc1[N+](=O)[O-])c1c(nc[nH]c1=O)O2 | 11.6
O=C(N/N=C/c1ccccc1F)C(=O)N1CCCCCC1 | -4.65
O=C1c2ccccc2C(=O)N1CCc1csc(-c2ccccc2)n1 | -9.26
N/C(=N\OC(=O)COc1ccc2ccccc2c1Br)c1ccccn1 | 15
O=C(COC(=O)c1ccc(Sc2ccccc2)c([N+](=O)[O-])c1)NC1CCCc2ccccc21 (stereo not drawn) | 9.71
Cc1cc(C)n2c(SCC(=O)Nc3ccccc3)nnc2n1 | 6.2
Cc1ccccc1/C=C1\CCCc2ccccc2C1=O | 12.6
Cn1c(=O)cc(OCCCC(=O)NCCN2CCN(c3ccccc3F)CC2)c2ccccc21 | 5.61
O=S(=O)(Nc1cccc(-c2cn3cccnc3n2)c1)c1ccc(F)cc1 | 7.11
CCCCn1c(O)c(C(C)=NCCCn2ccnc2)c(=O)[nH]c1=O | 5.81
COc1ccc(NC(=O)COC(=O)Cc2cccs2)cc1OC | -2.26
Cc1ccccc1CC(=O)NCC1CCCCC1 | 10.8
COc1ccccc1CNC(=O)C1CCC(CNc2c(N3CCOCC3)c(=O)c2=O)CC1 (stereo not drawn) | 12.7
CCc1ccc(NC(=O)c2cnc(N3CCN(c4ccccn4)CC3)c3ccccc23)cc1 | 12.5
CN(C)Cc1c(O)ccc2c(=O)c(-c3ccccc3Cl)c(C(F)(F)F)oc12 | 8.65

SMILES | hERG current change (%, negative = inhibition) at 1uM [%]
Cn1c(SCC(=O)Nc2ccc(Br)cc2)nc(O)cc1=O | 7.3
C1CCN(c2nc3nonc3nc2NCC2CCOCC2)CC1 | 10.3
N#Cc1ccc2c(c1)nc1ccccn12 | 2.75
CCCC(C)C(=O)Nc1ccc(S(=O)(=O)Nc2nccc(C)n2)cc1 (stereo not drawn) | 10.5
O=S1(=O)CCN2C(c3cccc4ccccc34)=CSC2=N1 | 5.62
O=S1(=O)CCC(NC(=S)Nc2ccc(Cl)cc2)C1 (stereo not drawn) | 3.6
O=C(Nc1nc(-c2ccccc2)ns1)c1ccncc1 | 7.82
C/C(=N\NC(=O)C1=NNC(=O)C1C)c1cccs1 (stereo not drawn) | 10.4
O=C(Nc1ccccc1)C1CCN(C(=O)c2ccccc2)CC1 | 10.7
O=C(CCNS(=O)(=O)c1ccccc1)OCC(=O)c1ccc(F)cc1 | 6.49
Cc1ccc2cc(CCNC(=O)c3cccs3)c(=O)[nH]c2c1 | 2.23
O=C(Cc1cccs1)NNC(=O)C12CC3CC(CC(C3)C1)C2 | 11.7
CCc1ccc(CCC(=O)Nc2ccc(Cl)cc2)o1 | 10.3
CCOC(=O)C1(CC2CCCCO2)CCN(C(=O)Nc2cccc(SC)c2)CC1 (stereo not drawn) | 11.5
Cc1ccc(N2C(=O)C3C(C2=O)N2CCCN2C3c2ccccc2)cc1C (stereo not drawn) | 10.5
CCOC(=O)c1nn(-c2ccccc2C)c2nc(-c3ccc(Cl)cc3)c(C#N)c(=O)n12 | 9.23
CC1=NC(=O)C(N=Nc2ccccc2)N1c1ccccc1 (stereo not drawn) | -6.61
COc1ccc(NCC(=O)N/N=C(\C)c2cc3ccccc3o2)cc1 | 9.5
CCOC(=O)N1CCN(C(=O)CN(c2ccccc2)S(C)(=O)=O)CC1 | 21.9
